± gives the standard error. Variants at the background level are over-represented here.
B1: glmS ribozyme (parent)
chain: AUAAAAGCGCCAGAACUACAGAAAUGUAGUUGACGAGGAGGAGGUUUAUCGAAUUUUCGGCGGAUGCCUCCAAA

Legend:
Conditions in all cases: with glucosamine-6-phosphate
glucosamine-6-phosphate [1] = variants of: B1; test: self-cleavage kobs at 40 uM GlcN6P; higher = faster cleavage; RNA array
Summary of the method: (§1)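 Barcoded ribozyme variants were transcribed in situ on sequenced MiSeq chips by E. coli RNA polymerase. At 37 °C, a hybridised Cy3 probe tracked them while glucosamine-6-phosphate (40 μM to 10 mM) in HEPES/KCl/Mg(OAc)2 buffer flowed in and tiles were imaged over ~14 h. Per-tile medians of signals normalised to baseline and to non-cleaving reference variants were fit to one- or two-exponential decays, giving kobs. kcat and KM came from weighted Michaelis–Menten fits across concentrations.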

glucosamine-6-phosphate [2] = variants of: B1; test: self-cleavage kobs at 10000 uM GlcN6P; higher = faster cleavage; RNA array
Summary of the method: as §1

glucosamine-6-phosphate [3] = variants of: B1; test: self-cleavage kobs at 640 uM GlcN6P; higher = faster cleavage; RNA array
Summary of the method: as §1

glucosamine-6-phosphate [4] = variants of: B1; test: self-cleavage kobs at 160 uM GlcN6P; higher = faster cleavage; RNA array
Summary of the method: as §1

glucosamine-6-phosphate [5] = variants of: B1; test: self-cleavage kobs at 2500 uM GlcN6P; higher = faster cleavage; RNA array
Summary of the method: as §1

Variant	self-cleavage kobs at 40 uM GlcN6P (glucosamine-6-phosphate [1]) [s⁻¹]	self-cleavage kobs at 10000 uM GlcN6P (glucosamine-6-phosphate [2]) [s⁻¹]	self-cleavage kobs at 640 uM GlcN6P (glucosamine-6-phosphate [3]) [s⁻¹]	self-cleavage kobs at 160 uM GlcN6P (glucosamine-6-phosphate [4]) [s⁻¹]	self-cleavage kobs at 2500 uM GlcN6P (glucosamine-6-phosphate [5]) [s⁻¹]
AUAAAAGCGCCAGAACUACAGAAAUGUAGUUGACGAGGAGGAGGUUUAUCGAAUCUUCGCCGGAUGCCUCCAAA [U55C G60C]	< 1e-05	< 1e-05			
AUAAAAGCGCCAGAACUACAGAAAUGUAGUUGACGAGGAGGAGGUUUAUCGAAUUGUCGGCGUAUGCCUCCAAA [U56G G63U]	< 1e-05				
AUAAAAGCGCCAGAACUACAGAAAUGUAGUUGACGAGGAGGAGGUUUAUCGAAUUUGCGACGGAUGCCUCCAAA [U57G G60A]	< 1e-05		< 1e-05	< 1e-05	< 1e-05
AUAAAAGCGCCAGAACUACAGAAAUGUAGUUGACGAGGAGGAGGUUUAUCGAAUUAUCGGCGGAUGCUUCCAAA [U56A C68U]	0.000143 ± 2.2e-05		0.000955 ± 0.00014	0.000404 ± 8.3e-05	
AUAAAAGCGCCAGAACUACAGAAAUGUAGUUGACGAGGAGGAGGUUUAUCGAAUUUGCGGCGGAUGUCUCCAAA [U57G C67U]	< 1e-05				
AUAAAAGCGCCAGAACUACAGAAAUGUAGUUGACGAGGAGGAGGUUUAUCGAAUUUUAGCCGGAUGUCUCCAAA [C58A G60C C67U]	< 1e-05	< 1e-05	< 1e-05		
AUAAAAGCGCCAGAACUACAGAAAUGUAGUUGACGAGGAGGAGGUUUAUCGAAUUCUCGGCGGAUGCCUGCAAA [U56C C70G]	< 1e-05		< 1e-05		
AUAAAAGCGCCAGAACUACAGAAAUGUAGUUGACGAGGAGGAGGUUUAUCGAAUUUUAGGCGAAUCGCUCCAAA [C58A G63A G66C C67G]	< 1e-05	< 1e-05			
AUAAAAGCGCCAGAACUACAGAAAUGUAGUUGACGAGGAGGAGGUUUAUCGAAUUAUCGGCGGAGGCCUCCAAA [U56A U65G]	3.75e-05 ± 1.4e-05	0.00196 ± 0.00027	0.000348 ± 0.00011		
AUAAAAGCGCCAGAACUACAGAAAUGUAGUUGACGAGGAGGAGGUUUAUCGAAUUAUCGGCGGUUGCCUCCAAA [U56A A64U]	< 1e-05				
AUAAAAGCGCCAGAACUACAGAAAUGUAGUUGACGAGGAGGAGGUUUAUCGAAUUUUAGGCGAAUGCCUCCAAA [C58A G63A]	< 1e-05	< 1e-05			
AUAAAAGCGCCAGAACUACAGAAAUGUAGUUGACGAGGAGGAGGUUUAUCGAAUCUUCGGCGUAUGCCUCCAAA [U55C G63U]	< 1e-05				
AUAAAAGCGCCAGAACUACAGAAAUGUAGUUGACGAGGAGGAGGUUUAUCGAAUUCACGGCGGAUGCCUCCAAA [U56C U57A]	< 1e-05				
AUAAAAGCGCCAGAACUACAGAAAUGUAGUUGACGAGGAGGAGGUUUAUCGAAUUUACGGGGGAUGCCUCCAAA [U57A C61G]	< 1e-05				
AUAAAAGCGCCAGAACUACAGAAAUGUAGUUGACGAGGAGGAGGUUUAUCGAAUUAUCGACGGAUGCCUCCAAA [U56A G60A]	< 1e-05				
AUAAAAGCGCCAGAACUACAGAAAUGUAGUUGACGAGGAGGAGGUUUAUCGAAUUAGCGGCGGAUGCCUCCAAA [U56A U57G]	< 1e-05				
AUAAAAGCGCCAGAACUACAGAAAUGUAGUUGACGAGGAGGAGGUUUAUCGAAUUUACGCCGGAUGCCUCCAAA [U57A G60C]	< 1e-05	< 1e-05	< 1e-05		
AUAAAAGCGCCAGAACUACAGAAAUGUAGUUGACGAGGAGGAGGUUUAUCGAAUUUACGUCGGAUGCCUCCAAA [U57A G60U]	< 1e-05	< 1e-05	< 1e-05	< 1e-05	
AUAAAAGCGCCAGAACUACAGAAAUGUAGUUGACGAGGAGGAGGUUUAUCGAAUGUGCGGCGGAUGUCUCCAAA [U55G U57G C67U]	< 1e-05				
AUAAAAGCGCCAGAACUACAGAAAUGUAGUUGACGAGGAGGAGGUUUAUCGAAUUUAGGGCGGAUGCCUCCAAA [U57A C58G]	< 1e-05				

Reference: the supplement of paper PMC7125110
